Test results taken from US5760092A, “Allocolchinones and uses thereof” (Brandeis University, priority 1996, dated 1998).
Several values for one entry are separate records, joined by “and”; a condition that tells them apart may be missing. Identical values can stand only once. Like-named read-outs stand apart in the source and are kept apart here.

Experiments:
CCRF-CEM leukemia cells = settings: log10 conc -6.0; 1 µM
RPMI-8226 leukemia cells = settings: log10 conc -7.0; 0.1 µM
[1] = tested on: A549/ATCC non-small cell lung cancer cells; settings: log10 conc -6.0; 1 µM
[2] = tested on: NCI-H23 non-small cell lung cancer cells
[3] = tested on: HCC-2998 colon cancer cells
[4] = tested on: SW-620 colon cancer cells; settings: log10 conc -8.0; 0.01 µM
UACC-257 melanoma cells [5] = tested on: UACC-257 melanoma cells
[6] = tested on: IGR-OV1 ovarian cancer cells
K-562 leukemia cells = assay: cells; settings: Homo sapiens
[7] = tested on: OVCAR-5 ovarian cancer cells
[8] = tested on: PC-3 prostate cancer cells
[9] = tested on: MDA-MB-435 breast cancer cells; settings: log10 conc -6.0; 1 µM
[10] = tested on: MDA-N breast cancer cells
[11] = tested on: BT-549 breast cancer cells; settings: log10 conc -8.0; 0.01 µM
[12] = tested on: A549/ATCC non-small cell lung cancer cells; assay: cells; settings: Homo sapiens
[13] = tested on: EKVX non-small cell lung cancer cells; assay: cells; settings: Homo sapiens
[14] = tested on: HCT-15 colon cancer cells; assay: cells; settings: Homo sapiens
[15] = tested on: SW-620 colon cancer cells; assay: cells; settings: Homo sapiens
MALME-3M melanoma cells = assay: cells; settings: Homo sapiens
SK-MEL-5 melanoma cells = assay: cells; settings: Homo sapiens
UACC-257 melanoma cells [16] = assay: cells; settings: Homo sapiens
UACC-62 melanoma cells = assay: cells; settings: Homo sapiens
[17] = tested on: IGR-OV1 ovarian cancer cells; assay: cells; settings: Homo sapiens
ACHN renal cancer cells = assay: cells; settings: Homo sapiens
[18] = tested on: PC-3 prostate cancer cells; assay: cells
[19] = tested on: MDA-MB-231/ATCC breast cancer cells; assay: cells; settings: Homo sapiens
[20] = read-out: Percent Growth, log10 conc -4.0
[21] = read-out: Percent Growth, log10 conc -5.0
[22] = read-out: Percent Growth, log10 conc -6.0
[23] = read-out: Percent Growth, log10 conc -9.0
[24] = read-out: Percent Growth, log10 conc -10.0
[25] = read-out: Percent Growth, log10 conc -7.0
[26] = read-out: Percent Growth, log10 conc -8.0

## COc1cc2c(c(OC)c1OC)-c1ccc(C(C)=O)cc1C(NC(C)=O)CC2 (stereo not drawn)
CCRF-CEM leukemia cells
  Percent Growth: -31%
RPMI-8226 leukemia cells
  Percent Growth: 32%
[1]
  Percent Growth: 28%
[2]; log10 conc -6.0, 1 µM
  Percent Growth: 25%
[2]; log10 conc -7.0, 0.1 µM
  Percent Growth: 29%
[2]; log10 conc -8.0, 0.01 µM
  Percent Growth: 36%
[3]; log10 conc -6.0, 1 µM
  Percent Growth: -4%
[3]; log10 conc -7.0, 0.1 µM
  Percent Growth: 26%
[3]; log10 conc -8.0, 0.01 µM
  Percent Growth: 82%
KM12 colon cancer cells; log10 conc -6.0, 1 µM
  Percent Growth: 7%
KM12 colon cancer cells; log10 conc -7.0, 0.1 µM
  Percent Growth: 7%
[4]
  Percent Growth: 26%
UACC-257 melanoma cells [5]; log10 conc -7.0, 0.1 µM
  Percent Growth: 65% and 33%
UACC-257 melanoma cells [5]; log10 conc -8.0, 0.01 µM
  Percent Growth: 74% and 45%
[6]; log10 conc -7.0, 0.1 µM
  Percent Growth: 19% and 9%
[6]; log10 conc -8.0
  Percent Growth: 47%
[6]; log10 conc -8.0, 0.01 µM
  Percent Growth: 24%
K-562 leukemia cells; K562, read-out: Percent Growth, log10 conc -4.0
  activity at 100 µM: 1%
K-562 leukemia cells; K562, read-out: Percent Growth, log10 conc -5.0
  activity at 10 µM: 3%
K-562 leukemia cells; K562, read-out: Percent Growth, log10 conc -9.0
  activity at 0.001 µM: 0%
K-562 leukemia cells; K562, read-out: Percent Growth, log10 conc -10.0
  activity at 0.0001 µM: 87%
[7]; log10 conc -7.0, 0.1 µM
  Percent Growth: 43% and 22%
[7]; log10 conc -8.0, 0.01 µM
  Percent Growth: 31%
TK-10 renal cancer cells; log10 conc -7.0, 0.1 µM
  Percent Growth: 55%
TK-10 renal cancer cells; log10 conc -8.0, 0.01 µM
  Percent Growth: 44%
[8]; log10 conc -6.0, 1 µM
  Percent Growth: 30%
[8]; log10 conc -7.0, 0.1 µM
  Percent Growth: 30%
[8]; log10 conc -8.0, 0.01 µM
  Percent Growth: 40%
[9]
  Percent Growth: -52%
[10]; log10 conc -6.0, 1 µM
  Percent Growth: -33%
[10]; log10 conc -7.0, 0.1 µM
  Percent Growth: -41%
[11]
  Percent Growth: 74%
[12]; A549, read-out: Percent Growth, log10 conc -4.0
  activity at 100 µM: 24%
[12]; A549, read-out: Percent Growth, log10 conc -5.0
  activity at 10 µM: 27%
[12]; A549, read-out: Percent Growth, log10 conc -6.0
  activity at 1 µM: 23%
[12]; A549, read-out: Percent Growth, log10 conc -9.0
  activity at 0.001 µM: 91%
[12]; A549, read-out: Percent Growth, log10 conc -10.0
  activity at 0.0001 µM: 105%
[13]; [20]
  activity at 100 µM: 43%
[13]; [21]
  activity at 10 µM: 50%
[13]; [22]
  activity at 1 µM: 37%
[13]; [23]
  activity at 0.001 µM: 44%
[13]; [24]
  activity at 0.0001 µM: 103%
[14]; HCT-15, read-out: Percent Growth, log10 conc -4.0
  activity at 100 µM: 6%
[14]; HCT-15, read-out: Percent Growth, log10 conc -5.0
  activity at 10 µM: 6%
[14]; HCT-15, read-out: Percent Growth, log10 conc -8.0
  activity at 0.01 µM: 31%
[14]; HCT-15, read-out: Percent Growth, log10 conc -9.0
  activity at 0.001 µM: 70%
[14]; HCT-15, read-out: Percent Growth, log10 conc -10.0
  activity at 0.0001 µM: 93%
[15]; SW-620, read-out: Percent Growth, log10 conc -4.0
  activity at 100 µM: 23%
[15]; SW-620, read-out: Percent Growth, log10 conc -5.0
  activity at 10 µM: 17%
[15]; SW-620, read-out: Percent Growth, log10 conc -6.0
  activity at 1 µM: 23%
[15]; SW-620, read-out: Percent Growth, log10 conc -7.0
  activity at 0.1 µM: 24%
[15]; SW-620, read-out: Percent Growth, log10 conc -8.0
  activity at 0.01 µM: 23%
[15]; SW-620, read-out: Percent Growth, log10 conc -9.0
  activity at 0.001 µM: 22%
[15]; SW-620, read-out: Percent Growth, log10 conc -10.0
  activity at 0.0001 µM: 90%
MALME-3M melanoma cells; [20]
  activity at 100 µM: 42%
MALME-3M melanoma cells; [21]
  activity at 10 µM: 46%
MALME-3M melanoma cells; [22]
  activity at 1 µM: 57%
MALME-3M melanoma cells; [25]
  activity at 0.1 µM: 51%
MALME-3M melanoma cells; [26]
  activity at 0.01 µM: 52%
MALME-3M melanoma cells; [23]
  activity at 0.001 µM: 53%
MALME-3M melanoma cells; [24]
  activity at 0.0001 µM: 91%
SK-MEL-5 melanoma cells; SK-MEL-5, read-out: Percent Growth, log10 conc -4.0
  activity at 100 µM: -20%
SK-MEL-5 melanoma cells; SK-MEL-5, read-out: Percent Growth, log10 conc -5.0
  activity at 10 µM: -2%
SK-MEL-5 melanoma cells; SK-MEL-5, read-out: Percent Growth, log10 conc -6.0
  activity at 1 µM: 0%
SK-MEL-5 melanoma cells; SK-MEL-5, read-out: Percent Growth, log10 conc -7.0
  activity at 0.1 µM: 4%
SK-MEL-5 melanoma cells; SK-MEL-5, read-out: Percent Growth, log10 conc -8.0
  activity at 0.01 µM: 19%
SK-MEL-5 melanoma cells; SK-MEL-5, read-out: Percent Growth, log10 conc -9.0
  activity at 0.001 µM: 34%
SK-MEL-5 melanoma cells; SK-MEL-5, read-out: Percent Growth, log10 conc -10.0
  activity at 0.0001 µM: 82%
UACC-257 melanoma cells [16]; UACC-257, read-out: Percent Growth, log10 conc -4.0
  activity at 100 µM: 25%
UACC-257 melanoma cells [16]; UACC-257, read-out: Percent Growth, log10 conc -5.0
  activity at 10 µM: 37%
UACC-257 melanoma cells [16]; UACC-257, read-out: Percent Growth, log10 conc -9.0
  activity at 0.001 µM: 69%
UACC-257 melanoma cells [16]; UACC-257, read-out: Percent Growth, log10 conc -10.0
  activity at 0.0001 µM: 88%
UACC-62 melanoma cells; UACC-62, read-out: Percent Growth, log10 conc -4.0
  activity at 100 µM: 33%
UACC-62 melanoma cells; UACC-62, read-out: Percent Growth, log10 conc -5.0
  activity at 10 µM: 31%
UACC-62 melanoma cells; UACC-62, read-out: Percent Growth, log10 conc -6.0
  activity at 1 µM: 38%
UACC-62 melanoma cells; UACC-62, read-out: Percent Growth, log10 conc -7.0
  activity at 0.1 µM: 36%
UACC-62 melanoma cells; UACC-62, read-out: Percent Growth, log10 conc -8.0
  activity at 0.01 µM: 33%
UACC-62 melanoma cells; UACC-62, read-out: Percent Growth, log10 conc -9.0
  activity at 0.001 µM: 37%
UACC-62 melanoma cells; UACC-62, read-out: Percent Growth, log10 conc -10.0
  activity at 0.0001 µM: 95%
[17]; IGROV-1, read-out: Percent Growth, log10 conc -4.0
  activity at 100 µM: 5%
[17]; IGROV-1, read-out: Percent Growth, log10 conc -5.0
  activity at 10 µM: -2%
[17]; IGROV-1, read-out: Percent Growth, log10 conc -9.0
  activity at 0.001 µM: 50%
[17]; IGROV-1, read-out: Percent Growth, log10 conc -10.0
  activity at 0.0001 µM: 110%
ACHN renal cancer cells; [20]
  activity at 100 µM: 20%
ACHN renal cancer cells; [21]
  activity at 10 µM: 26%
ACHN renal cancer cells; [26]
  activity at 0.01 µM: 61%
ACHN renal cancer cells; [23]
  activity at 0.001 µM: 71%
ACHN renal cancer cells; [24]
  activity at 0.0001 µM: 104%
[18]; [20]
  activity at 100 µM: 26%
[18]; [21]
  activity at 10 µM: 26%
[18]; [22]
  activity at 1 µM: 22%
[18]; [25]
  activity at 0.1 µM: 25%
[18]; [26]
  activity at 0.01 µM: 27%
[18]; [23]
  activity at 0.001 µM: 33%
[18]; [24]
  activity at 0.0001 µM: 97%
[19]; MDA-MB-231, read-out: Percent Growth, log10 conc -4.0
  activity at 100 µM: 32%
[19]; MDA-MB-231, read-out: Percent Growth, log10 conc -5.0
  activity at 10 µM: 14%
[19]; MDA-MB-231, read-out: Percent Growth, log10 conc -9.0
  activity at 0.001 µM: 10%
[19]; MDA-MB-231, read-out: Percent Growth, log10 conc -10.0
  activity at 0.0001 µM: 62%
